Screen size: about 3,200 compounds; about 300 (9.4%) showed activity. Only a part is listed here, and it is no random draw.
Tested on: A673/TR/shEF
Assay: cell viability (LOESS-normalised, relative to median of negative controls) (log2 ratio); higher = more viable cells (less compound effect), active = hit call of the paper (over 3 MAD below the median)
Settings: treatment time: 72 h
In short: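 A673/TR/shEF Ewing sarcoma cells (1,500 per well, 384-well plates) were grown with or without doxycycline to induce EWS-FLI1 shRNA knockdown, starting 24 h before compounds. Library compounds at two or more concentrations, with DMSO controls, were added for three days. Cell viability was read by CellTiter-Glo luminescence on an Envision reader, then LOESS-corrected per plate, divided by the median of negative controls and log2-transformed. Hits were wells at least three median absolute deviations from the median of all screened wells.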

[1] = 0.25 µM, library screen: screen2, EWS-FLI1 expression: high (no doxycycline)
[2] = 0.25 µM, library screen: screen2, EWS-FLI1 expression: low (doxycycline-induced shRNA knockdown)
[3] = 2.5 µM, library screen: screen2, EWS-FLI1 expression: high (no doxycycline)
[4] = 2.5 µM, library screen: screen2, EWS-FLI1 expression: low (doxycycline-induced shRNA knockdown)
[5] = 0.25 µM, library screen: screen1, EWS-FLI1 expression: high (no doxycycline)
[6] = 0.25 µM, library screen: screen1, EWS-FLI1 expression: low (doxycycline-induced shRNA knockdown)
[7] = 2.5 µM, library screen: screen1, EWS-FLI1 expression: high (no doxycycline)
[8] = 2.5 µM, library screen: screen1, EWS-FLI1 expression: low (doxycycline-induced shRNA knockdown)
[9] = 25 µM, library screen: screen1, EWS-FLI1 expression: high (no doxycycline)
[10] = 0.103 µM, library screen: screen3, EWS-FLI1 expression: high (no doxycycline)
[11] = 0.103 µM, library screen: screen3, EWS-FLI1 expression: low (doxycycline-induced shRNA knockdown)
[12] = 0.308 µM, library screen: screen3, EWS-FLI1 expression: high (no doxycycline)
[13] = 0.308 µM, library screen: screen3, EWS-FLI1 expression: low (doxycycline-induced shRNA knockdown)
[14] = 0.926 µM, library screen: screen3, EWS-FLI1 expression: high (no doxycycline)
[15] = 0.926 µM, library screen: screen3, EWS-FLI1 expression: low (doxycycline-induced shRNA knockdown)
[16] = 2.8 µM, library screen: screen3, EWS-FLI1 expression: high (no doxycycline)
[17] = 2.8 µM, library screen: screen3, EWS-FLI1 expression: low (doxycycline-induced shRNA knockdown)
[18] = 8.3 µM, library screen: screen3, EWS-FLI1 expression: high (no doxycycline)
[19] = 8.3 µM, library screen: screen3, EWS-FLI1 expression: low (doxycycline-induced shRNA knockdown)
[20] = 25 µM, library screen: screen3, EWS-FLI1 expression: high (no doxycycline)
[21] = 25 µM, library screen: screen3, EWS-FLI1 expression: low (doxycycline-induced shRNA knockdown)

Measured: cell viability (log2)

CN(C)CC[C@@H](c1ccc(Br)cc1)c1ccccn1
inactive: [1] 0.106 | [2] 0.0903 | [3] 0.0852 | [4] 0.0735

C[C@]12CCC3c4ccc(OS(=O)(=O)O)cc4CCC3C1CC[C@H]2O (stereo partly drawn)
inactive: [5] 0.0646 | [6] 0.0512 | [7] 0.0988 | [8] 0.092

O=c1[nH]c2cc(Cl)c(Cl)cc2[nH]c1=O
inactive: [5] 0.152 | [6] 0.0361 | [1] 0.108 | [2] 0.0219 | [7] 0.108 | [8] 0.0376 | [3] 0.116 | [4] 0.019

CC(C)[C@@H]1CC[C@@H](C)CC1=O
inactive: [5] 0.057 | [6] 0.0478 | [7] 0.148 | [8] 0.0792

NCCCCN
inactive: [5] 0.145 | [6] 0.0277 | [1] 0.211 | [2] 0.0563 | [7] 0.065 | [8] -0.0367 | [3] 0.309 | [4] 0.0767

CC1=CC2C(CC1=O)C(C)=CCC2C(C)C (stereo not drawn)
inactive: [5] 0.101 | [6] 0.0137 | [7] 0.074 | [8] 0.156

O=C(O)c1cc(NCc2cc(O)ccc2O)ccc1O
active: [7] -0.24 | [9] -0.388

CCCCCCCCNC(C)C(O)c1ccc(SC(C)C)cc1 (stereo not drawn)
inactive: [5] 0.0351 | [6] 0.122 | [7] 0.124 | [8] 0.202

C[C@H]1O[C@@H](O[C@H]2[C@@H](O)C[C@H](O[C@H]3[C@@H](O)C[C@H](O[C@H]4CC[C@@]5(C)[C@H](CC[C@@H]6[C@@H]5CC[C@]5(C)[C@@H](C7=CC(=O)OC7)CC[C@]65O)C4)O[C@@H]3C)O[C@@H]2C)C[C@H](O)[C@@H]1O
active: [5] -2.45 | [6] -2.04 | [7] -3.94 | [8] -4.23

COc1cc2c(cc1OC)[C@@H]1C(=O)c3ccc4c(c3O[C@@H]1CO2)C=CC(C)(C)O4
active: [5] -0.591 | [6] -0.253 | [7] -2.11 | [8] -0.84

COc1cc(C2NC(=O)NC(C)=C2C(=O)Nc2cccc(Cl)c2)cc(OC)c1OC (stereo not drawn)
inactive: [5] 0.0796 | [6] 0.0843 | [7] 0.0754 | [8] -0.0585

Cc1cccc(Nc2ccncc2S(=O)(=O)NC(=O)NC(C)C)c1
inactive: [10] 0.0396 | [11] -0.0451 | [12] 0.0502 | [13] 0.0231 | [14] 0.0381 | [15] 0.0245 | [16] 0.0609 | [17] 0.00717 | [18] 0.0545 | [19] 0.0436 | [20] 0.106 | [21] 0.111

CC(=O)O[C@@H]1CC[C@@]2(C)C(C[C@@H](OC(C)=O)[C@@]3(C)C4=CC(=O)O[C@@H](c5ccoc5)[C@]4(C)CCC23)C1(C)C (stereo partly drawn)
inactive: [5] -0.00795 | [6] 0.0487 | [7] 0.121 | [8] 0.0464

O=C(O)CCCC[C@@H]1CCSS1
inactive: [1] 0.146 | [2] 0.0722 | [3] 0.201 | [4] 0.0443

CC(=O)O[C@H]1C[C@@H](O)C(C)(C)[C@@H]2C[C@@H](OC(C)=O)[C@]3(C)[C@H](CC[C@@]4(C)[C@@H](c5ccoc5)OC(=O)[C@H]5O[C@@]534)[C@@]12C
inactive: [5] 0.0499 | [6] 0.125 | [7] 0.125 | [8] 0.111

Cc1cc(O)c(C)c2c1C(=O)Oc1c(C)c(O)c(C(=O)O)c(C)c1O2
inactive: [5] 0.09 | [6] 0.103 | [7] 0.0454 | [8] 0.145

O=C1Nc2ccc(I)cc2/C1=C/c1cc(Br)c(O)c(Br)c1
inactive: 0.025 µM, library screen: screen1, EWS-FLI1 expression: high (no doxycycline) 0.115 | 0.025 µM, library screen: screen1, EWS-FLI1 expression: low (doxycycline-induced shRNA knockdown) -0.011 | [5] 0.134 | [6] -0.0458 | [1] 0.275 | [2] 0.0983 | [7] 0.0489 | [8] 0.0445 | [3] 0.0633 | [4] 0.123 | [9] -0.0847 | 25 µM, library screen: screen1, EWS-FLI1 expression: low (doxycycline-induced shRNA knockdown) 0.107

COc1cc(NS(=O)(=O)c2ccc(N)cc2)nc(OC)n1
inactive: [5] 0.0282 | [6] -0.0293 | [7] 0.153 | [8] 0.0706

C=N[C@@H](C(=O)N[C@@H]1C(=O)N2[C@@H]1SC(C)(C)[C@@H]2C(=O)O)c1ccccc1
inactive: [5] 0.0691 | [6] 0.129 | [7] 0.137 | [8] 0.108

CC1(C)O[C@@H]2[C@@H](CO[C@@]3(COS(N)(=O)=O)OC(C)(C)O[C@@H]23)O1
inactive: [10] 0.0446 | [11] 0.0518 | [12] 0.131 | [13] 0.0753 | [14] -0.0108 | [15] 0.141 | [16] 0.0703 | [17] 0.0655 | [18] 0.0296 | [19] 0.0661 | [20] 0.175 | [21] 0.0273

COc1cc2ccc(=O)oc2cc1O
inactive: [5] 0.00519 | [6] -0.0513 | [7] 0.0452 | [8] 0.0897

CC(C)Cn1cnc2c(N)nc3ccccc3c21
inactive: [10] 0.182 | [11] 0.0724 | [12] 0.178 | [13] 0.0451 | [14] 0.11 | [15] 0.0767 | [16] 0.106 | [17] 0.0301 | [18] 0.107 | [19] 0.0861 | [20] 0.124 | [21] 0.115

CC(=O)OCC(=O)[C@@]1(O)[C@H](OC(C)=O)C[C@H]2[C@@H]3CCC4=CC(=O)C=C[C@]4(C)[C@@]3(F)[C@@H](O)C[C@@]21C
inactive: [5] 0.15 | [6] 0.106 | [7] 0.0924 | [8] -0.0304

NC(=O)N1c2ccccc2CC(=O)c2ccccc21
inactive: [5] 0.13 | [6] 0.0766 | [7] 0.178 | [8] 0.0711

Cc1nnc(SCC(=O)N2c3cc(C)c(C)cc3-c3c(ssc3=S)C2(C)C)s1
inactive: [5] 0.0437 | [6] 0.1 | [7] 0.106 | [8] 0.371

COc1c(C(=O)O)ccc2c1CCC(C)(C)O2
inactive: [5] 0.0873 | [6] 0.0519 | [7] 0.206 | [8] -0.0164

Cc1ccncc1Nc1ncccc1C(=O)Nc1ccc(C2(C#N)CCCC2)cc1
inactive: [10] 0.0267 | [11] 0.0194 | [12] 0.0111 | [13] -0.0325 | [14] -0.00588 | [15] -0.00768 | [16] -0.00204 | [17] -0.0249 | [18] 0.00934 | [19] -0.0211 | [20] -0.0197 | [21] 0.0222

O=c1cc(-c2ccc(O)cc2)oc2cc(O[C@@H]3O[C@H](CO)[C@@H](O)[C@H](O)[C@H]3O)cc(O)c12
inactive: [5] 0.0644 | [6] -0.097 | [7] 0.187 | [8] 0.117

Cc1c(NC(C)C)c(=O)n(-c2ccccc2)n1C
inactive: [5] 0.0695 | [6] 0.096 | [7] 0.0785 | [8] -0.00131

NS(=O)(=O)Cc1noc2ccccc12
inactive: [10] 0.0112 | [11] 0.0061 | [12] 0.00766 | [13] -0.00478 | [14] -0.0264 | [15] -0.00155 | [16] 0.0125 | [17] 0.0198 | [18] -0.0142 | [19] 0.024 | [20] -0.0716 | [21] -0.0114

COc1ccc([C@@H]2Sc3ccccc3N(CCN(C)C)C(=O)[C@@H]2OC(C)=O)cc1
inactive: [5] 0.0386 | [6] 0.0682 | [1] 0.106 | [2] 0.0709 | [7] 0.0866 | [8] 0.0597 | [3] 0.0713 | [4] 0.103

COC(=O)[C@@H](N)CS
inactive: [5] 0.101 | [6] 0.145 | [7] 0.175 | [8] 0.25

Cc1cn([C@H]2C[C@H](N=[N+]=[N-])[C@@H](CO)O2)c(=O)[nH]c1=O
active: [5] -0.142 | [7] -1.07 | [8] -0.798

Cc1c(NC(=O)OC[C@@H]2COCCN2)cn2ncnc(Nc3ccc4c(cnn4Cc4cccc(F)c4)c3)c12
inactive: [10] 0.0336 | [11] 0.0451 | [12] -0.0266 | [13] 0.00787 | [14] -0.0039 | [15] 0.096 | [16] 0.0301 | [17] 0.0282 | [18] -0.00249 | [19] 0.0357 | [20] 0.0034 | [21] -0.0539

CCCCCCOC(=O)/N=C(/N)c1ccc(NCc2nc3cc(C(=O)N(CCC(=O)OCC)c4ccccn4)ccc3n2C)cc1
active: [20] -0.441

CC(C[N+](C)(C)C)OC(N)=O (stereo not drawn)
inactive: [10] 0.057 | [11] 0.109 | [5] 0.0686 | [6] 0.0454 | [1] 0.239 | [2] 0.148 | [12] 0.102 | [13] 0.149 | [14] 0.0923 | [15] 0.122 | [7] 0.144 | [8] 0.101 | [3] 0.158 | [4] 0.103 | [16] 0.117 | [17] 0.0588 | [18] 0.0626 | [19] 0.0961 | [20] 0.17 | [21] 0.09

NCC(=O)CCC(=O)O
inactive: [10] 0.0878 | [11] 0.0931 | [5] 0.0472 | [6] 0.0573 | [12] 0.0223 | [13] 0.00305 | [14] 0.0307 | [15] 0.0277 | [7] 0.0883 | [8] -0.128 | [16] -0.0213 | [17] 0.0259 | [18] 0.00995 | [19] 0.0734 | [20] -0.00962 | [21] 0.017
